Measurements published in PubChem BioAssay AID1159614 (National Center for Advancing Translational Sciences (NCATS), 2016).
The whole screen tested about 45,000 compounds, of which about 65 (0.1%) were called active. The call rests on the fitted dose curve; in most records, active means well fitted activation curve with a large enough effect; inconclusive means small, poorly fitted or top-dose-only effect; inactive means no such curve, though single readings can be large or run the other way. Some of the results follow.

What follows are molecules tested against Galactocerebrosidase (Homo sapiens) (UniProt P54803) (assay: A Novel Cell-Based Assay to Identify Small Molecules for B -Galactocerebrosidase). Settings: 145M-Twi-hGALC-G270D cells (Twitcher mouse brain line with human GALC G270D), HMU-beta-Gal fluorescence, 48 h; series mostly up to 57.5 µM; activation: at the top concentration.
Chain of UniProt P54803 (P54803 whole entry, looked up): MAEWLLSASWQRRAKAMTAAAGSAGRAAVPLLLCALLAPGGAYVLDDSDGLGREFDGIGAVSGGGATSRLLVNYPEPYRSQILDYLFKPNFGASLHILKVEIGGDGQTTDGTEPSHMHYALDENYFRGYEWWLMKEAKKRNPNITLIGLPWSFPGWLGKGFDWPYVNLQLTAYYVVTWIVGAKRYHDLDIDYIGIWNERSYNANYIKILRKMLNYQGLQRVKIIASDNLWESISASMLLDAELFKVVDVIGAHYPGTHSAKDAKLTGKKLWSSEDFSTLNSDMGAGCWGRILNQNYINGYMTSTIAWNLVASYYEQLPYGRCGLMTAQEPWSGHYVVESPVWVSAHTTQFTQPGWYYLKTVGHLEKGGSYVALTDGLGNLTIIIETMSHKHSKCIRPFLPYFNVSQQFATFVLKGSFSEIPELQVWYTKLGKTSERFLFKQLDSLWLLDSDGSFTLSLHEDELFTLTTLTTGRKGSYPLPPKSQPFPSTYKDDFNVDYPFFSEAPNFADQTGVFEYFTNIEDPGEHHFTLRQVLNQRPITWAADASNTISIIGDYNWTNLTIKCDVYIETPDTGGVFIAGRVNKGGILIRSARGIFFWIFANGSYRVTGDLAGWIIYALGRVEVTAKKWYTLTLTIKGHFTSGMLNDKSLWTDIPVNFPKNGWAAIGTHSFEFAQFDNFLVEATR
Procedure, shortened: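 Brain-derived Twitcher mouse 145M-Twi cells stably expressing human GALC-G270D or wild-type GALC, treated live, then residual GALC activity read by fluorescence of HMU-b-Gal substrate (0.1 mM final) in citrate-phosphate buffer pH 5.2 with sodium taurocholate. Signal increase indicates enhancement.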
Further: 0% is about no effect; nearly all actives have a fitted effect of over 65% in size.

Structure (SMILES)	activation
CC(C)=CCNc1ncnc2c1ncn2[C@@H]1O[C@H](CO)[C@@H](O)[C@H]1O	inactive: -12.8%
Fc1ccc(Nc2nc(-c3cccc(Cl)c3)c3c(n2)-c2ccccc2OC3)c(F)c1	inactive: -8.44%
Fc1ccc(-c2cc(-c3ccc(F)cc3)c3c(n2)-c2cc(F)ccc2OC3)cc1	inactive: 4.49%
Cc1c(NC(=O)c2cccs2)cccc1-c1nc2cc(Cl)ccc2o1	inactive: -9.1%
CCOc1ccc(NC(=O)c2nc(S(=O)(=O)Cc3ccccc3F)ncc2Cl)cc1	inactive: -19.3%
COc1ccc(S(=O)(=O)n2nc(-c3ccco3)nc2NCc2ccc(C(C)C)cc2)cc1	inactive: -8.84%
O=C(O)Cc1ccc2c(c1)C(=O)c1ccccc1CO2	inactive: -8.94%
CCc1ccc(-c2nc3cc(NC(=O)c4ccc(C)c(C)c4)ccc3o2)cc1	inactive: -24.6%
COc1ccc(-c2cc(-c3nc(-c4cc(OC)c(OC)c(OC)c4)no3)[nH]n2)c(OC)c1	inactive: -20.5%
CC(=O)NCCNC(=O)CCCc1nnc2n(CC(C)C)c(=O)c3sccc3n12	inactive: -3.31%
Cc1nc2ccccc2n1Cc1ccc(Cl)cc1	inactive: -17.4%
COc1ccc(S(=O)(=O)NCc2cccn2Cc2cc(C)ccc2C)cc1OC	inactive: -9.58%
CCc1nnc2c3ccccc3nc(Nc3cc(C)cc(C)c3)n12	inactive: -22.5%
COc1cccc(NC(=O)Cn2c(=O)n(Cc3ccc(F)cc3)c(=O)c3sc4ccccc4c32)c1	inactive: -14.2%
O=C(NCCCN1CCN(c2ccccc2F)CC1)c1ccc2nc(CCc3ccccc3)oc2c1	inactive: -12.3%
CCOc1ccc(C(=O)Nc2ccc(OCc3cc(=O)n4cccc(C)c4n3)cc2)cc1	inactive: -9.09%
CCOC(=O)c1cccc(NC(=O)Nc2c(C)n(C)n(-c3ccccc3)c2=O)c1	inactive: -12.8%
O=c1[nH]c(C2CCCN(S(=O)(=O)c3ccccc3)C2)nc2c1nnn2Cc1ccccc1Br (configuration not stated)	inactive: 0.694%
COc1ccc(-c2ccc(=O)n(CC(=O)Nc3cc(OC)ccc3OC)n2)cc1	inactive: -3.71%
Cc1cccc(-n2ncc3c(NNC(=O)c4ccccc4Cl)ncnc32)c1	inactive: -14.2%
Cc1ccc(C)c(Nc2nn3c(=O)c4ccc(C(=O)NCc5ccccc5)cc4nc3s2)c1	inactive: -20.6%

Structure (SMILES)	activation
COc1ccc(CNC(=O)c2cc(-c3ccc(Br)s3)nc3ccccc23)cc1	inactive: -14.5%
CCOC(=O)c1ccc(NC(=O)CC(C)n2nc(C)cc2C)cc1 (configuration not stated)	inactive: -13.6%
O=C(CN1C(=O)COc2ccc(S(=O)(=O)N3CCCCCC3)cc21)N1CCN(c2ccc(Cl)cc2)CC1	inactive: 0.125%
COc1cc(NC(=O)Cc2noc3ccccc23)cc(OC)c1OC	inactive: -18.8%
CCc1cnc2c(c1SCc1cc(OC)cc(OC)c1)c(=O)n(C)c(=O)n2C	inactive: -13.7%
COc1ccc(OC)c(S(=O)(=O)NCCS(=O)(=O)N2CCN(c3ccccc3F)CC2)c1	inactive: -31.8%
CCS(=O)(=O)NCCc1csc2nc(-c3ccc(OC)cc3)nn12	inactive: -10.9%
Cc1ccc(C)c(CN2C(=O)c3ccccc3S(=O)c3ccc(C(=O)N4CCCCC4)cc32)c1 (configuration not stated)	inactive: -13.5%
COc1cccc(C(=O)Nc2nnc(S(=O)(=O)N3CCCc4ccccc43)s2)c1	inactive: -10.3%
Cc1nn(CCC(=O)Nc2cccc(C#N)c2)c(C)c1S(=O)(=O)N1CCCCC1	inactive: 9.62%
Cc1cccc(C)c1NC(=O)Cn1cc(C(=O)C2CC2)c2ccccc21	inactive: -13.6%
CCCCN(CC)CCCNC(=O)c1cn(C)c(=O)c2c1c1ccccc1n2C	inactive: -4.97%
C=CCc1ccccc1OCCSc1nc(-c2ccccc2F)nc2cc(=O)[nH]n12	inactive: -10.2%
O=S(=O)(NCC(c1ccccc1)N1CCc2ccccc21)c1ccc(Cl)cc1 (configuration not stated)	inactive: -35.6%
Cc1ccc(C(=O)C(=O)O)cc1C	inactive: -13.3%
COc1ccccc1/C=C/C(=O)Nc1nc2n(n1)C(c1ccc(F)cc1)C=C(c1ccccc1)N2 (configuration not stated)	inactive: -9.28%
Cc1ccc(OCCn2c(C3CC(=O)N(Cc4ccc(F)cc4)C3)nc3ccccc32)c(C)c1 (configuration not stated)	inactive: -22.2%
CSc1ncc(C(=O)NCc2cccc(C)c2)c(-c2ccccc2)n1	inactive: -16.8%
Cc1cccc(NC(=O)c2c(NC(=O)c3ccccc3)sc3c2CCC3)c1	inactive: -13.2%
Cc1cc(C)cc(-n2ccnc2SCC(=O)Nc2ccccc2F)c1	inactive: -32.3%
COc1ccc(C(=O)c2cn(Cc3ccccc3OC)c3cc4c(cc3c2=O)OCO4)cc1	inactive: -8.7%

Structure (SMILES)	activation
COC(=O)c1ccc(NC(=O)CC2C(=O)N(c3ccccc3)C(=O)N2Cc2cccs2)cc1 (configuration not stated)	inactive: -14.6%
CCN(CC)C(=O)c1sc2c(c1C)c(=O)n(-c1ccc(OC)cc1OC)c(=O)n2CC(=O)Nc1ccccc1	inactive: 2.45%
Cc1cccc(N2CCN(c3nc4ccccc4c4nnc(C)n34)CC2)c1C	inactive: -18.3%
COc1ccc(CNC(=O)Cn2cccc2C(=O)c2ccccc2C)cc1	inactive: -2.41%
CC(C)c1ccc(C2NC(=O)c3c(sc4c3CCN(C)C4)N2)cc1 (configuration not stated)	inactive: -5.43%
CCOc1ccccc1NC(=O)Cn1c(=O)n(-c2ccc(C)cc2)c(=O)c2c1cnn2C	inactive: -13%
Cc1cc(C)cc(NC(=O)CCn2cnc3ccccc3c2=O)c1	inactive: -9.73%
COc1ccc2c(c1)c(CC(=O)Nc1c(C)cccc1C)c(C)n2C(=O)c1ccc(Cl)cc1	inactive: -12.4%
CSc1ccc(CCNC(=O)c2ccc(-n3c(C)cc4c3CCC(C)C4)cc2)cc1 (configuration not stated)	inactive: -26%
COc1ccc(OCC(=O)NCc2ccc3c(c2)CCN3C(=O)c2cccc(C)c2)cc1	inactive: -29.3%
CC(=O)N1CCCC1c1nc2ccccc2n1Cc1cccc(C)c1 (configuration not stated)	inactive: -13%
Cc1ccc(C)c(N2CCN(C(=O)c3c(C)oc4nc(C)nc(N5CCOCC5)c34)CC2)c1	inactive: 4.09%
CCCCC(=O)OC1=CN(Cc2ccccc2)S(=O)(=O)c2ccccc21	inactive: -6.25%
Cc1ccc(-n2nnnc2SCC(=O)NCCc2ccccc2)cc1C	inactive: 8.77%
COc1ccc(NC(=O)c2ccc(NC(=O)CCS(=O)(=O)c3cccs3)cc2)cc1Cl	inactive: -6.98%
CCC(C)NC(=O)Cn1c(=O)n(-c2ccc(Cl)cc2)c(=O)c2c3c(sc21)CCCC3 (configuration not stated)	inactive: -7.66%
CCOc1ccc(N(CC(=O)OC)S(=O)(=O)c2ccc3c(c2)n(C)c(=O)c(=O)n3C)cc1	inactive: -13.2%
CCCN[C@H]1CCc2nc(N)sc2C1	inactive: -18%
O=C(Nc1ccc(F)cc1F)C1CCN(C(=O)c2cnn(-c3ccccc3)c2-n2cccc2)CC1	inactive: -6.23%
O=C(NCC(c1ccc2c(c1)OCO2)N1CCN(c2ccccc2)CC1)c1ccc(F)c(F)c1 (configuration not stated)	inactive: -15.9%
